Results on 10 variants are retold here after the supplement of paper PMC12217912.

This is one part of the list. Sequences were assembled here from the parent chain. Inactive controls read about 0.05.

To fix the notation:
B1: TEV protease; numbered along this chain (parent)
chain: MGESLFKGPRDYNPISSSICHLTNESDGHTTSLYGIGFGPFIITNKHLFRRNNGTLVVQSLHGVFKVKDTTTLQQHLVDGRDMIIIRMPKDFPPFPQKLKFREPQREERICLVTTNFQTKSMSSMVSDTSCTFPSGDGIFWKHWIQTKDGQCGSPLVSTRDGFIVGIHSASNFTNTNNYFTSVPKNFMELLTNQEAQQWVSGWRLNADSVLWGGHKVFMVKPEEPFQPVKEATQL

The variants in this test derive from B1. The experiment in a line: raw area under fraction-flipped curve 0-4 h after induction (AUC4h, not background-subtracted), DNA-recorder readout of cleavage of the substrate (dimensionless); higher = more cleavage of the substrate by the protease variant. The conditions noted are these: temperature: 34 °C; time window: 0-4 h after rhamnose induction. As for the experimental part:
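In vivo DNA recorder in E. coli TOP10(DE3) ΔrhaA at 34 °C. Each TEVp single-site mutant (parent TEVp 0) is paired with a single-site variant of the 7-mer TEVs (canonical ENLYFQ|S). The substrate sits between flexible linkers in a Bxb1-sfGFP-TEVs-SsrA fusion, so cleavage stabilises Bxb1 and speeds flipping of a recombination array, read by NGS. The value is the raw area under the fraction-flipped curve over 0-4 h after rhamnose induction (AUC4h), with ≥20 reads per time point. It is not background-subtracted; inactive controls average about 0.047.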
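Also: Bxb1 expression induced with 0.2% (w/v) L-rhamnose at OD600 near 0.5, cultures sampled hourly, flipped fraction per protease–substrate barcode pair counted by paired-end Illumina sequencing.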

Regarding MGESLFKGPRDYNPISSSICHLTNESDGHTTSLYGIGFGPFIITNKHLFRRNNGTLVVQSLHGVFKVKDTTTLQQHLVDGRDMIIIRMPKDFPPFPQKLKFREPQREERICLVTTNFQTKSMSSMVSDRSCTFPSGDGIFWKHWIQTKDGQCGSPLVSTRDGFIVGIHSASNFTNTNNYFTSVPKNFMELLTNQEAQQWVSGWRLNADSVLWGGHKVFMVKPEEPFQPVKEATQL [T129R], the “area with substrate ENAYFQS” value was found to be 0.0698, the “area with substrate ENCYFQS” value was found to be 0.0659, the “area with substrate ENEYFQS” value turned out to be 0.0641 and the “area with substrate ENFYFQS” value amounted to 0.071. The “area with substrate ENGYFQS” value is 0.0708, the “area with substrate ENHYFQS” value was 0.0735, the “area with substrate ENIYFQS” value worked out at 0.0877 and the “area with substrate ENQYFQS” value came out at 0.0471. For the same variant, the “area with substrate ENSYFQS” value amounted to 0.0718, the “area with substrate ENVYFQS” value was determined as 0.0778 and the “area with substrate ENYYFQS” value was 0.0575.
With MGESLFKGPRDYNPISSSICHLTNESDGHTTSLYGIGFGPFIITNKHLFRRNNGTLVVQSLHGVFKVKDTTTLQQHLVDGRDMIIIRMPKDFPPFPQKLKFREPQREERICLVSTNFQTKSMSSMVSDTSCTFPSGDGIFWKHWIQTKDGQCGSPLVSTRDGFIVGIHSASNFTNTNNYFTSVPKNFMELLTNQEAQQWVSGWRLNADSVLWGGHKVFMVKPEEPFQPVKEATQL [T114S], the “area with substrate ENAYFQS” value is 0.0228, the “area with substrate ENCYFQS” value stood at 0.063, the “area with substrate ENEYFQS” value is 0.0706 and the “area with substrate ENFYFQS” value stood at 0.0621. Moreover, the “area with substrate ENHYFQS” value is 0.0603, the “area with substrate ENKYFQS” value amounted to 0.0497, the “area with substrate ENRYFQS” value turned out to be 0.0637 and the “area with substrate ENSYFQS” value was 0.045. Further, the “area with substrate ENWYFQS” value amounted to 0.06.
Consider MGESLFKGPRDYNPISSSICHLTNESDGHTTSLYGIGFGPFIITNKHLFRRNNGTLVVQSLHGVFKVKDTTTLQQHLVDGRDMIIIRMPKDFPPFPQKLKFREPQREERICLVGTNFQTKSMSSMVSDTSCTFPSGDGIFWKHWIQTKDGQCGSPLVSTRDGFIVGIHSASNFTNTNNYFTSVPKNFMELLTNQEAQQWVSGWRLNADSVLWGGHKVFMVKPEEPFQPVKEATQL [T114G], for which the “area with substrate ENAYFQS” value came to 0.0581, the “area with substrate ENEYFQS” value was 0.0277, the “area with substrate ENFYFQS” value is 0.0607 and the “area with substrate ENHYFQS” value turned out to be 0.0691. Moreover, the “area with substrate ENMYFQS” value is 0.0964, the “area with substrate ENNYFQS” value came to 0.0574, the “area with substrate ENPYFQS” value was 0.047 and the “area with substrate ENQYFQS” value was 0.0542. The “area with substrate ENRYFQS” value worked out at 0.0765, the “area with substrate ENSYFQS” value was determined as 0.0668 and the “area with substrate ENVYFQS” value was determined as 0.0861.
Turning to MGESLFKGPRDYNPISSSICHLTNESDGHTTSLYGIGFGPFIITNKHLFRRNNGTLVVQSLHGVFKVKDTTTLQQHLVDGRDMIIIRMPKDFPPFPQKLKFREPQREERICLVTTNFQKKSMSSMVSDTSCTFPSGDGIFWKHWIQTKDGQCGSPLVSTRDGFIVGIHSASNFTNTNNYFTSVPKNFMELLTNQEAQQWVSGWRLNADSVLWGGHKVFMVKPEEPFQPVKEATQL [T119K], the “area with substrate ENAYFQS” value came out at 0.0639, the “area with substrate ENDYFQS” value was 0.0468, the “area with substrate ENEYFQS” value stood at 0.0675 and the “area with substrate ENFYFQS” value was determined as 0.0423. Further, the “area with substrate ENGYFQS” value was determined as 0.0075, the “area with substrate ENKYFQS” value was determined as 0.061, the “area with substrate ENNYFQS” value turned out to be 0.0604 and the “area with substrate ENPYFQS” value was 0.0581. Moreover, the “area with substrate ENRYFQS” value worked out at 0.0752, the “area with substrate ENSYFQS” value came out at 0.0571, the “area with substrate ENVYFQS” value was determined as 0.0779 and the “area with substrate ENYYFQS” value is 0.045.
Take MGESLFKGPRDYNPISSSICHLTNESDGHTTSLYGIGFGPFIITNKHLFRRNNGTLVVQSLHGVFKVKDTTTLQQHLVDGRDMIIIRMPKDFPPFPQKLKFREPQREERICLETTNFQTKSMSSMVSDTSCTFPSGDGIFWKHWIQTKDGQCGSPLVSTRDGFIVGIHSASNFTNTNNYFTSVPKNFMELLTNQEAQQWVSGWRLNADSVLWGGHKVFMVKPEEPFQPVKEATQL [V113E]: the “area with substrate ENAYFQS” value amounted to 0.0613, the “area with substrate ENDYFQS” value came to 0.057, the “area with substrate ENFYFQS” value was found to be 0.063 and the “area with substrate ENHYFQS” value stood at 0.0499. In addition, the “area with substrate ENNYFQS” value is 0.0628, the “area with substrate ENQYFQS” value amounted to 0.0602, the “area with substrate ENSYFQS” value turned out to be 0.0652 and the “area with substrate ENVYFQS” value came to 0.0421.
On to MGESLFKGPRDYNPISSSICHLTNESDGHTTSLYGIGFGPFIITNKHLFRRNNGTLVVQSLHGVFKVKDTTTLQQHLVDGRDMIIIRMPKDFPPFPQKLKFREPQREERICLVTTNFQTKSMSSFVSDTSCTFPSGDGIFWKHWIQTKDGQCGSPLVSTRDGFIVGIHSASNFTNTNNYFTSVPKNFMELLTNQEAQQWVSGWRLNADSVLWGGHKVFMVKPEEPFQPVKEATQL [M125F], for which the “area with substrate ENAYFQS” value amounted to 0.0693, the “area with substrate ENCYFQS” value was 0.059, the “area with substrate ENDYFQS” value is 0.0578 and the “area with substrate ENEYFQS” value came out at 0.0635. Moreover, the “area with substrate ENFYFQS” value came out at 0.0551, the “area with substrate ENHYFQS” value was determined as 0.0515, the “area with substrate ENQYFQS” value was 0.0166 and the “area with substrate ENSYFQS” value came out at 0.048. Further, the “area with substrate ENVYFQS” value is 0.112.
Regarding MGESLFKGPRDYNPISSSICHLTNESDGHTTSLYGIGFGPFIITNKHLFRRNNGTLVVQSLHGVFKVKDTTTLQQHLVDGRDMIIIRMPKDFPPFPQKLKFREPQREERIELVTTNFQTKSMSSMVSDTSCTFPSGDGIFWKHWIQTKDGQCGSPLVSTRDGFIVGIHSASNFTNTNNYFTSVPKNFMELLTNQEAQQWVSGWRLNADSVLWGGHKVFMVKPEEPFQPVKEATQL [C111E], the “area with substrate ENAYFQS” value worked out at 0.0706, the “area with substrate ENCYFQS” value stood at 0.0257, the “area with substrate ENDYFQS” value worked out at 0.0483 and the “area with substrate ENFYFQS” value is 0.0535. The “area with substrate ENIYFQS” value is 0.119, the “area with substrate ENKYFQS” value is 0.0709, the “area with substrate ENSYFQS” value is 0.0581 and the “area with substrate ENTYFQS” value was 0.0586.
With MGESLFKGPRDYNPISSSICHLTNESDGHTTSLYGIGFGPFIITNKHLFRRNNGTLVVQSLHGVFKVKDTTTLQQHLVDGRDMIIIRMPKDFPPFPQKLKFREPQREERIQLVTTNFQTKSMSSMVSDTSCTFPSGDGIFWKHWIQTKDGQCGSPLVSTRDGFIVGIHSASNFTNTNNYFTSVPKNFMELLTNQEAQQWVSGWRLNADSVLWGGHKVFMVKPEEPFQPVKEATQL [C111Q], the “area with substrate ENAYFQS” value is 0.0621, the “area with substrate ENCYFQS” value came out at 0.0717, the “area with substrate ENDYFQS” value was 0.0462 and the “area with substrate ENEYFQS” value was 0.0724. Further, the “area with substrate ENGYFQS” value came to 0.0673, the “area with substrate ENHYFQS” value came to 0.045, the “area with substrate ENQYFQS” value was determined as 0.0622 and the “area with substrate ENSYFQS” value is 0.0579. In addition, the “area with substrate ENWYFQS” value is 0.0522.
Regarding MGESLFKGPRDYNPISSSICHLTNESDGHTTSLYGIGFGPFIITNKHLFRRNNGTLVVQSLHGVFKVKDTTTLQQHLVDGRDMIIIRMPKDFPPFPQKLKFREPQREERICLVTTNFQTKSMSSMVSDTSCTSPSGDGIFWKHWIQTKDGQCGSPLVSTRDGFIVGIHSASNFTNTNNYFTSVPKNFMELLTNQEAQQWVSGWRLNADSVLWGGHKVFMVKPEEPFQPVKEATQL [F133S], the “area with substrate ENAYFQS” value came to 0.0633, the “area with substrate ENCYFQS” value came to 0.0749, the “area with substrate ENDYFQS” value is 0.0575 and the “area with substrate ENEYFQS” value came out at 0.0604. In addition, the “area with substrate ENHYFQS” value was determined as 0.067, the “area with substrate ENKYFQS” value is 0.0625, the “area with substrate ENPYFQS” value was found to be 0.0662 and the “area with substrate ENQYFQS” value amounted to 0.0597. Also, the “area with substrate ENRYFQS” value is 0.0461, the “area with substrate ENSYFQS” value worked out at 0.073, the “area with substrate ENTYFQS” value was 0.0723 and the “area with substrate ENWYFQS” value was 0.0509.
With MGESLFKGPRDYNPISSSICHLTNESDGHTTSLYGIGFGPFIITNKHLFRRNNGTLVVQSLHGVFKVKDTTTLQQHLVDGRDMIIIRMPKDFPPFPQKLKFREPQREERICLVTTNFQTKSMSSMVSDTACTFPSGDGIFWKHWIQTKDGQCGSPLVSTRDGFIVGIHSASNFTNTNNYFTSVPKNFMELLTNQEAQQWVSGWRLNADSVLWGGHKVFMVKPEEPFQPVKEATQL [S130A], the “area with substrate ENAYFQS” value stood at 0.05, the “area with substrate ENCYFQS” value worked out at 0.0593, the “area with substrate ENDYFQS” value is 0.0613 and the “area with substrate ENEYFQS” value is 0.063. For the same variant, the “area with substrate ENFYFQS” value stood at 0.0764, the “area with substrate ENNYFQS” value was 0.063, the “area with substrate ENQYFQS” value is 0.06 and the “area with substrate ENSYFQS” value came out at 0.066. Besides, the “area with substrate ENVYFQS” value came to 0.0793, the “area with substrate ENWYFQS” value was 0.0321 and the “area with substrate ENYYFQS” value worked out at 0.0631.
